Experiments:
4 ccRCC cell lines = test: High-throughput proliferative screen, single point; conditions: in at least 2/4 ccRCC cell lines
Caki2 = test: Proliferation dose-response IC50, Caki2; format: cell-based; conditions: Homo sapiens, CAKI-2, read-out: IC50 (μM) Caki2
Protocol: (§1) Error bars indicate standard deviation for n=2 replicates. […] To evaluate inhibition of SCD1 by these molecules, we used LC/MS to quantify changes in SCD1-catalyzed conversion of stearoyl-CoA to oleoyl-CoA in response to drug treatments in vitro using SCD1 protein extracted from murine liver (Figure 3c, Supplementary Figure 2g). […] Synthesis routes and spectral data including NMR and MS are also provided (Supplementary Figures 3-6).
Cells were seeded at 5,000 cells/well in clear-bottom 96-well plates in triplicate. Drug treatment was applied at 1:1000 in reduced serum conditions (3%). […] Alternatively, cells were plated 2x10^5/well in 12-well plates (Genesee Scientific) in triplicate prior to drug treatment. After 120-hour treatment, cell number was established using a Coulter Particle Counter (Beckman). Oleic acid-albumin (Sigma Aldrich) was added to media at 5µM, and was applied adjuvant to drug treatment. Drug stocks were prepared in DMSO (Sigma) at 1000x. IC50 dosing per cell line was calculated using CalcuSyn analytical software.

[1] = molecular target: T1, SCD1 protein extracted from murine liver (Mus musculus, UniProt P13516); test: In vitro SCD1 enzymatic inhibition by LC/MS (stearoyl-CoA to oleoyl-CoA, liver microsomes); format: biochemical
T1 construct: Microsomes were isolated from murine liver using Microsome Isolation Kit (BioVision); from tissue; host or cells: murine liver microsomes
T1 sequence (P13516 1-355): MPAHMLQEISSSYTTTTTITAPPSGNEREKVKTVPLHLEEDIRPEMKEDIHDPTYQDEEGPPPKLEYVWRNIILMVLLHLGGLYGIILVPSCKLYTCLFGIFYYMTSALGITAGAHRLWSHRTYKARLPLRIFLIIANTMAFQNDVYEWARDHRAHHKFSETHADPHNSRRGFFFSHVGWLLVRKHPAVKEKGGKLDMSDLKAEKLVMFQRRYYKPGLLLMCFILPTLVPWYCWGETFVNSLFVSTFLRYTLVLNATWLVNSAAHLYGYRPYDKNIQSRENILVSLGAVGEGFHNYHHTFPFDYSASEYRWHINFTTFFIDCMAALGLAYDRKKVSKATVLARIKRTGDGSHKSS
Description: as §1, with “After synthesis feasibility and cost analysis, we synthesized 38 of the selected compounds.” for “Error bars indicate standard deviation for n=2 replicates.”
Microsomes were isolated from murine liver using Microsome Isolation Kit (BioVision) per the manufacturer protocol. […] To quantify biotransformation of ^13C18-stearoyl CoA to ^13C18-oleoyl CoA for drug treatments relative to vehicle controls, supernatants were evaluated using the LC/MS^2 acyl CoA quantitation method of Magnes et al. and adapting selected reaction monitoring (SRM) for isotope-labeled acyl CoAs. […] SRM signal areas for isotope-labeled acyl CoAs were measured relative to the heptadecanoyl CoA I.S. using XCalibur software (Thermo), and percent enzyme inhibition determined by comparing ^13C18-oleoyl CoA quantities between treatment and DMSO control assays. […]

SMILES	decrease in proliferation (4 ccRCC cell lines) [%]	IC50 (Caki2) [µM]	IC50 [1] [µM]
CNC(=O)c1ccccc1OCC(=O)N1CCN(C(=O)c2ccccc2C(F)(F)F)CC1 [SSI-1]	> 40		
O=C(Nc1ccc(OCc2ccccc2)nc1)N1CCN(C(=O)c2ccccc2C(F)(F)F)CC1 [SSI-2]		2	0.0233
